Experimental findings from ChEMBL document CHEMBL1201862, “PubChem BioAssay data set” (2004) are described below.

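Step 1: Grow cells in 96-well plates. Step 2: Expose to compound for 48 hours at 5 concentrations. Step 3: Interpolate endpoints linearly; if unreached, use highest concentration. Here, GI50 denotes the concentration required for 50% inhibition of growth.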 Calls of active or inactive are those of the source. Rule as the data show it: active = GI50 up to about 1.1 µM and inactive = higher. Bounds are passed on as bounds.

The test system of the assay is NCI-H322M. Put plainly: growth of human tumour cells (NCI), 48 h.
Regarding `Cc1cc2c(cc1-c1cc3c(cc1C)C(C(C)C)=C(O)C(=O)/C3=C\NCC1CCCN3CCCCC13)/C(=C/NCC1CCCN3CCCCC13)C(=O)C(O)=C2C(C)C` (configuration not stated), the GI50 was inactive: 5.66 µM.
For `O=C(CCC(=O)Nc1ccc(Cl)c(Cl)c1)CC(=O)c1ccc(Cl)cc1` the value was inactive: > 100 µM.
For `COC(=O)Nc1nc2cc(S(=O)(=O)n3nnc4ccccc43)ccc2[nH]1` the value was inactive: > 100 µM; for `O=C(C/N=C(\CN(c1ccccc1)c1ccccc1)Oc1c(Cl)cc(Cl)cc1Cl)n1cnc2ccccc21`, inactive: > 100 µM.
The value for `CC(C)(C)OC(=O)NCC(=O)N(CCc1ccc(Cl)c(Cl)c1)CCN1CCCC1` was inactive: 19.7 µM; that for `CC(C)CC(=O)CC(O)C(Cl)(Cl)Cl` (configuration not stated) was inactive: > 100 µM.
With `CCCCc1c(N(C)C)c(OC(C)=O)c(-c2cn(C)c3ccccc23)oc1=O`, the GI50 is inactive: 27.6 µM.
The value for `CCCCCCCCCCCCN(CC(O)C(O)C(OC1OC(CO)C(O)C(O)C1O)C(O)CO)C(=O)CCCCCCCCCCC` (configuration not stated) was inactive: 19.7 µM; that for `O=Nn1c2ccccc2c2ccccc21` was inactive: > 100 µM; that for `COC(=O)N/N=C(\C(=O)Nc1cccc([N+](=O)[O-])c1)c1nc2ccc([N+](=O)[O-])cc2nc1O` was inactive: 29.1 µM.
Take `c1ccc2c(c1)SCCc1cn[nH]c1-2`: the GI50 was inactive: > 100 µM.
For `COC(=O)[C@]1(NC(=O)c2ccccc2)C[C@H]1C=O` the value was inactive: 33.4 µM; for `CN1CC(S(=O)(=O)c2ccccc2)CC(S(=O)(=O)c2ccccc2)C1c1ccccc1` (configuration not stated), inactive: 13.7 µM.
The value for `C=C1CC(Cn2cc(C)c(=O)[nH]c2=O)(c2ccc(Cl)cc2)OC1=O` (configuration not stated) was inactive: 16.8 µM; that for `NC(CO)c1ccc(OCc2ccccc2)cc1` (configuration not stated) was inactive: > 100 µM; that for `CC(=O)N(C(C)=O)c1c(N)n(C)c(=O)[nH]c1=O` was inactive: > 100 µM.
The value for `COP(=O)(OC)[C@@](O)(c1ccccc1)[C@@H](O)[C@@H](O)c1ccccc1` was inactive: > 100 µM; that for `CSc1ccc(/C=C2\CN(C)C/C(=C\c3ccc(SC)cc3)C2=O)cc1` was inactive: 65.9 µM; that for `Cc1cc(C)c(C2=NO[C@@H]3[C@H]2C(=O)C=C2N(Cc4ccccc4)CCO[C@@]23O)c(C)c1` was inactive: > 100 µM.
Take `C=CCOC1CC(n2cnc3c(N)ncnc32)OC1CO` (configuration not stated): the GI50 was inactive: > 100 µM.
The value for `CCc1cc2c(c3[nH]ccc13)[C@@H](C)C[C@H]2C` was inactive: 17.7 µM; that for `COc1ccc2c(c1)O[C@@H]1C(O)Oc3cc(OC)c(OC)cc3[C@]1(O)C2=O` (some centres not stated) was inactive: > 100 µM.
On to `Cc1nc(-c2ccccc2)c(C)n2c1nc1ccccc12`, for which the GI50 was inactive: 31.5 µM.
For `NC1=Nc2cc(Cl)ccc2Sc2nc3ccccc3n21` the value was inactive: > 100 µM; for `O=C(NC12CC3CCC1CC(C3)C2)[C@@H]1CCCN1C(=O)OCc1ccccc1` (some centres not stated), inactive: > 100 µM; for `O=C(Oc1c(Br)cc(Br)cc1C(=O)Oc1ccccc1)C(=O)Oc1c(Br)cc(Br)cc1C(=O)Oc1ccccc1`, inactive: > 100 µM.
The value for `CN(C)c1ccc(/C=C(\NC(=O)c2ccccc2)C(=O)NC(CCC(=O)O)C(=O)O)cc1` (configuration not stated) was inactive: > 100 µM; that for `COc1cc2c(cc1OC)C(C(CO)CO)N(CC(O)CCl)CC2` (configuration not stated) was inactive: > 100 µM.
For `COc1cccc(OC)c1C1ON=C(c2ccccc2)N1C12CC3CC(CC(C3)C1)C2` (configuration not stated) the value was inactive: 45 µM; for `Cc1ccc(S(=O)(=O)N/N=C(\c2nc3ccc(Cl)cc3nc2O)C(O)c2cccc([N+](=O)[O-])c2)cc1` (configuration not stated), inactive: > 100 µM; for `N#CC(NNC(=O)Cc1ccccc1)c1cccc(O)c1` (configuration not stated), inactive: > 100 µM.
For `CSc1nc(C)c2c(n1)N(c1ccc(Cl)cc1)CC2`, the GI50 was inactive: > 100 µM.
For `O=C1C=CC(=O)c2nc3c(cc21)CCC3` the value was inactive: > 100 µM.
In the case of `c1ccc2c(c1)CCc1c(-c3n[nH]c4c3CCc3ccccc3-4)n[nH]c1-2`, the GI50 is inactive: > 100 µM.
For `Cc1cc2c(cc1Cl)SC(NNC(=O)c1ccncc1)=NS2(=O)=O` the value was inactive: > 10 µM; for `COc1ccc(CCN2CCOCC2)cc1`, inactive: > 100 µM.
The value for `C=C(CN(C)C)C(=O)c1ccc(C(=O)C(=C)CN(C)C)cc1` was inactive: > 100 µM.
In the case of `O=C(O)COc1ccc(O)c2c1C(=O)CCCC2=O`, the GI50 is inactive: > 100 µM.
The value for `O=C1OC(OC/C(Br)=C(\Br)COC2OC(=O)C(Cl)=C2Cl)C(Cl)=C1Cl` (configuration not stated) was inactive: 18.7 µM.
The value for `COc1ccccc1Cc1nc(-c2ccccc2)nn(C2OC(COC(C)=O)C(OC(C)=O)C(OC(C)=O)C2OC(C)=O)c1=S` (configuration not stated) was inactive: 37 µM; that for `O=C1CSC(=S)N1/N=C/c1ccc(Cl)c([N+](=O)[O-])c1` was inactive: 37 µM.
Regarding `O=C(CC1(O)C(=O)Nc2ccc([N+](=O)[O-])cc21)c1ccc2ccccc2c1` (configuration not stated), the GI50 was inactive: > 100 µM.
The value for `COP(=O)(OC)C(O)/C=C/c1ccco1` (configuration not stated) was inactive: > 100 µM; that for `CCOP(=O)(OCC)C1CCCCOC1=O` (configuration not stated) was inactive: > 100 µM.
The value for `CS(=O)(=O)c1ccc(-c2cc(-c3ccc(S(C)(=O)=O)cc3)[n+](-c3cc(-c4ccc(S(C)(=O)=O)cc4)c([O-])c(-c4ccc(S(C)(=O)=O)cc4)c3)c(-c3ccc(S(C)(=O)=O)cc3)c2)cc1` was inactive: > 100 µM.
For `Cc1ccc(-c2c(C#N)c(O)n(NS(=O)(=O)c3ccccc3)c(=O)c2C#N)cc1` the value was inactive: > 100 µM.
Consider `C[C@@H](CC(=O)OCc1ccccc1)OC1OC(COC(=O)C(C)(C)C)C(OC(=O)C(C)(C)C)C(OC(=O)C(C)(C)C)C1OC(=O)C(C)(C)C` (some centres not stated), for which the GI50 is inactive: > 100 µM.
The value for `Nc1ccc2c(=O)cc(-c3cccs3)[nH]c2n1` was inactive: 3.27 µM; that for `CCN(CC)CCN1C(=O)CC2[C@@H]3CCc4cc(OC)ccc4C3CC[C@]2(C)C1=O` (some centres not stated) was inactive: 24.1 µM; that for `C=CC1(NC(=O)c2ccccc2)CCC(C(C)(C)C)CC1` (configuration not stated) was inactive: > 94 µM.
For `c1ccc(/N=C2\SC3=NCCN3\C2=N/c2ccccc2)cc1` the value was inactive: 16.7 µM; for `CC1CC(c2ccccc2)Nc2nc3ccccc3n21` (configuration not stated), inactive: > 100 µM.
For `COc1ccc(/C=C/C(=O)c2sc(N)nc2C)cc1` the value was inactive: > 100 µM.
For `COC(=O)[C@H](CC(C)C)NC1=C(Cl)C(=O)c2c(O)ccc(O)c2C1=O`, the GI50 is inactive: > 10 µM.
For `CCOC(=O)Cc1csc(N/C=C2/C(=O)Oc3ccccc3C2=O)n1` the value was inactive: 23.3 µM.
In the case of `Oc1cc(O)cc(-c2nc3cc(F)ccc3s2)c1`, the GI50 is inactive: 30 µM.
The value for `CCCCON1C[C@H](OC(C)=O)C(OC(C)=O)[C@H](OC(C)=O)C1` (some centres not stated) was inactive: > 100 µM; that for `COC(=O)Nc1nc2cc(S(=O)(=O)N3CCOCC3)ccc2[nH]1` was inactive: > 100 µM.
For `O=C(COc1ccc(OCC(=O)N2C(=O)CN(c3ccccc3)C2=S)cc1)N1C(=O)CN(c2ccccc2)C1=S` the value was inactive: > 53.6 µM; for `CC(C)c1ccc2c(c1)CCC1C(C)(C)[C@@H](O)CC[C@]21C` (some centres not stated), inactive: 31.2 µM; for `O=C(c1ccc2ccccc2c1)N(Cc1cccnc1)C(=S)N(Cc1cccnc1)C(=O)c1ccc2ccccc2c1`, inactive: 29 µM.
For `O=C(c1ccccc1)c1c(CC(O)c2ccccn2)n(C(=O)c2ccccc2)c2ccccc12` (configuration not stated) the value was inactive: 17 µM; for `[N-]=[N+]=NC1=CC(=O)c2cccc3cccc1c23`, inactive: 52.2 µM; for `COC(=O)N(C(=O)OC)C(C(=O)O)C(C)C` (configuration not stated), inactive: > 100 µM.
On to `CC1=NCC[N+]1(CCc1ccccc1)Cc1ccccc1` (configuration not stated), for which the GI50 is inactive: > 100 µM.
For `CCCCCCCCCCCCCCCCCC(=O)OCC1OC(OC)C(NC(=O)N(CCCl)N=O)C(O)C1O` (configuration not stated) the value was inactive: 34.9 µM; for `CCC(/C(=N\Nc1c(Cl)cc(Cl)cc1Cl)c1ccccc1)n1ccnc1C` (configuration not stated), inactive: 14.4 µM.
The value for `CCOC(=O)C1S/C(=N\c2ccccc2)N=C1C` (configuration not stated) was inactive: > 100 µM.
For `Cc1cccc(Cl)c1NCC(O)CN1CCN(C)CC1` (configuration not stated) the value was inactive: > 100 µM; for `Cc1ccc([N+](=O)[O-])cc1S(=O)(=O)Nc1ccc(C2=NN(S(=O)(=O)c3cc([N+](=O)[O-])ccc3C)C(c3ccccc3O)C2)cc1` (configuration not stated), inactive: > 100 µM; for `c1ccc(CNc2ccc3[nH]c4cnccc4c3c2)cc1`, inactive: 18.6 µM.
Turning to `CCCCC/C(=N\c1[nH]cnc1C(N)=O)OCC`, the GI50 was inactive: > 100 µM.
For `CC1(C)COC(/C=C/C2=NC(C)(C)CO2)=N1` the value was inactive: 19 µM; for `COc1ccc(NC(=O)COC(=O)c2cccc3c(=O)c4ccccc4[nH]c23)cc1`, inactive: 29.9 µM; for `COC(=O)C(N)CCCC(N)C(=O)NC(C)C(=O)NC(CCC(=O)NCCCNc1ccc([N+](=O)[O-])c2[nH]c3ccccc3c(=O)c12)C(N)=O` (configuration not stated), inactive: 8.2 µM.
The value for `Cc1ccc2c(c1)C(=C(C#N)C#N)CCCS2(=O)=O` was inactive: > 100 µM; that for `C1=Cc2nc1c(-c1ccncc1)c1ccc([n-]1)c(-c1ccncc1)c1nc(c(-c3ccncc3)c3ccc([n-]3)c2-c2ccncc2)C=C1.[Zn+2]` was inactive: > 100 µM.
For `COc1cc(OC)c2c(c1-c1ccc(C)cc1)CC(C)N(Cc1ccccc1)[C@H]2C` (some centres not stated) the value was inactive: 43.5 µM; for `CC(C)C1COC(c2cccc(C3=N[C@@H](C(C)C)CO3)n2)=N1` (some centres not stated), inactive: > 100 µM; for `O=C1C=CC(=O)c2c(O)nc(CBr)nc21`, inactive: > 100 µM.
Regarding `OC1(c2ccc(Cl)cc2)c2c(ccc3c2OCO3)C2=NCCN21` (configuration not stated), the GI50 is inactive: 13.3 µM.
As for `Brc1ccc(C[N+]23CN4CN(CN(C4)C2)C3)cc1`, the GI50 was inactive: > 100 µM.
